Measured values taken from the BET-seq Pho4 binding data (Le et al. 2018).
Some of the results follow. Values were computed here from the reads of four pooled replicates and scatter widely.

What follows are sequences tested against T1, Pho4 (S. cerevisiae) (UniProt P07270) (assay: relative binding free energy (BET-seq); higher = weaker binding). Details: reference: library average.
T1 sequence: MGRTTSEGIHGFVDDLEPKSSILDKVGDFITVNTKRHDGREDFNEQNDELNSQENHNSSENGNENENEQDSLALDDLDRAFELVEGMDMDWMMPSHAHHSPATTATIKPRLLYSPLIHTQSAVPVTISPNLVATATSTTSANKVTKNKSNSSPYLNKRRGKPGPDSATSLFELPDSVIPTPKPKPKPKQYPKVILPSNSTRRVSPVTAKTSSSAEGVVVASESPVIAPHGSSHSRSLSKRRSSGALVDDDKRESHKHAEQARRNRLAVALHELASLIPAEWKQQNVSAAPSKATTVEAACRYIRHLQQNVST

Sequence | relative binding free energy
AATGGCACGTGGTCGT | -0.16 kcal/mol
CGCGGCACGTGGGTCA | -0.08 kcal/mol
TTAATCACGTGTTAGC | 0.1 kcal/mol
TAAAGCACGTGTATAG | -0.08 kcal/mol
GGTAACACGTGAGTGG | 0.31 kcal/mol
TTGACCACGTGTTGGC | 0.06 kcal/mol
CTTAACACGTGTTTTG | -0.18 kcal/mol
CAGGACACGTGGGGTT | -0.09 kcal/mol
AGAGGCACGTGGTCGC | -0.19 kcal/mol
TCGAGCACGTGGGAGA | -0.02 kcal/mol
TGGTGCACGTGGGCCA | -0.2 kcal/mol
GGGTTCACGTGCGGCA | 0.4 kcal/mol
AGTGCCACGTGAGCGG | 0.01 kcal/mol
CCTTTCACGTGGTTGT | 0.37 kcal/mol
GCTCGCACGTGTGGTG | -0.08 kcal/mol
AAGGGCACGTGTCTGG | -0.09 kcal/mol
CGTTTCACGTGTACAT | 0.35 kcal/mol
TTGGTCACGTGGTCTC | 0.2 kcal/mol
CTTTTCACGTGGAGGA | 0.36 kcal/mol
GGCGTCACGTGTTGGT | 0.12 kcal/mol
TTAGACACGTGGGATA | -0.01 kcal/mol
CAGGTCACGTGTTCTG | 0.11 kcal/mol
TATGTCACGTGATGTC | 0.29 kcal/mol

Sequence | relative binding free energy
TTTGTCACGTGTTAGA | 0.04 kcal/mol
TCTTTCACGTGCTAGG | 0.3 kcal/mol
CGTAGCACGTGGTTCG | -0.19 kcal/mol
TGAAGCACGTGTGGTT | -0.19 kcal/mol
TGAATCACGTGCGGAG | 0.15 kcal/mol
TAATTCACGTGATAGT | 0.32 kcal/mol
TGGAACACGTGGGCGA | 0.04 kcal/mol
AGTGGCACGTGGAGAA | 0.01 kcal/mol
TTGTACACGTGACGTT | 0.25 kcal/mol
TTCCTCACGTGGGGGC | 0.21 kcal/mol
TTGTTCACGTGGGAGG | 0.28 kcal/mol
TCGTGCACGTGTATTA | -0.08 kcal/mol
TTAGTCACGTGTGTAG | 0.09 kcal/mol
TAATTCACGTGACGGG | 0.36 kcal/mol
CAGTGCACGTGGTGAC | 0.02 kcal/mol
TGTGTCACGTGTTTCC | 0.25 kcal/mol
TATCTCACGTGAGGTA | 0.35 kcal/mol
GGTCACACGTGATGTT | 0.07 kcal/mol
TAGGGCACGTGGATGA | -0.13 kcal/mol
TGCTACACGTGCGGGT | 0.11 kcal/mol
TGTGGCACGTGGGCGC | -0.28 kcal/mol
GTTCACACGTGATGGG | 0.28 kcal/mol
AGATACACGTGTGGAA | 0.11 kcal/mol

Sequence | relative binding free energy
TTGTTCACGTGCTGGC | 0.4 kcal/mol
TTGTTCACGTGTTGTT | 0.31 kcal/mol
GCATGCACGTGTAGGT | 0.12 kcal/mol
CAGTGCACGTGATATT | 0.17 kcal/mol
TGCCGCACGTGGTAGG | -0.16 kcal/mol
GATTACACGTGTAGCT | 0.28 kcal/mol
TAGATCACGTGGTTAA | 0.06 kcal/mol
ATTTGCACGTGTCGTT | 0.03 kcal/mol
AAATGCACGTGTTTAT | 0 kcal/mol
TTTGACACGTGGGGGT | -0.14 kcal/mol
TTTGGCACGTGACCGT | -0.17 kcal/mol
AGGGTCACGTGAGAGT | 0.35 kcal/mol
GGATTCACGTGTTTAC | 0.42 kcal/mol
TAGCTCACGTGAAGTG | 0.21 kcal/mol
GTAGACACGTGTCTTT | 0.15 kcal/mol
TAGGGCACGTGGCGGC | -0.34 kcal/mol
TGTTACACGTGTTCTG | 0.01 kcal/mol
GGGTTCACGTGATTAA | 0.42 kcal/mol
GATTCCACGTGATAGG | 0.28 kcal/mol
GGGGTCACGTGTGGTC | 0.22 kcal/mol
TTATACACGTGTGGTG | 0.14 kcal/mol
TTTGTCACGTGGATCA | 0.09 kcal/mol
TATTGCACGTGTCTTG | 0.02 kcal/mol

Sequence | relative binding free energy
TAAGTCACGTGTGAGG | -0.01 kcal/mol
AAGCGCACGTGTGTTT | -0.05 kcal/mol
GTAGACACGTGAGGGA | 0.19 kcal/mol
GAGATCACGTGTGTTA | 0.2 kcal/mol
TAGGTCACGTGGGAAT | 0.1 kcal/mol
AGCATCACGTGTTGAT | 0.15 kcal/mol
TTGTTCACGTGGGTTT | 0.29 kcal/mol
GTTGACACGTGGGGCT | -0.07 kcal/mol
CGGGGCACGTGGCCGA | -0.11 kcal/mol
TGTGCCACGTGGGAAA | -0.09 kcal/mol
TATTGCACGTGATATG | 0.01 kcal/mol
TAAGGCACGTGTTGTC | -0.27 kcal/mol
GACTTCACGTGTTGGA | 0.24 kcal/mol
GGTTACACGTGGCATT | 0.13 kcal/mol
GTAGTCACGTGGAGGC | 0.18 kcal/mol
AGATTCACGTGCATGT | 0.17 kcal/mol
GGCTTCACGTGTTGTT | 0.27 kcal/mol
TATGACACGTGGTTTT | 0 kcal/mol
TTTGGCACGTGTAGAA | -0.09 kcal/mol
ATTAGCACGTGGACGG | -0.06 kcal/mol
AGGAACACGTGGAAGT | 0.12 kcal/mol
CTAGACACGTGGTTGG | -0.07 kcal/mol
TGTTGCACGTGTCCAG | 0.11 kcal/mol

Sequence | relative binding free energy
GTAGACACGTGTTTAT | 0.06 kcal/mol
GGGTACACGTGTCTTT | 0.03 kcal/mol
TGTTGCACGTGAGACT | 0.14 kcal/mol
TTGTACACGTGGAGGC | 0.14 kcal/mol
GTTCGCACGTGTTATT | 0.03 kcal/mol
AGATTCACGTGTGTGT | 0.2 kcal/mol
TTTTACACGTGCCTGT | 0.01 kcal/mol
AGTTGCACGTGGATTG | 0.01 kcal/mol
TCAGACACGTGTGGGT | 0.04 kcal/mol
ACGATCACGTGGTGTG | 0.09 kcal/mol
TAGGCCACGTGAATGG | 0.23 kcal/mol
TGACTCACGTGTGAGT | 0.29 kcal/mol
TTAACCACGTGGGAGG | -0.2 kcal/mol
GGATACACGTGGTCGT | 0.14 kcal/mol
ATGATCACGTGGAGTG | 0.06 kcal/mol
GATTACACGTGATTAT | 0.4 kcal/mol
CGCTTCACGTGAAGTT | 0.53 kcal/mol
TTGAACACGTGTGAAG | 0.06 kcal/mol
TGATTCACGTGATTGT | 0.35 kcal/mol
GATAGCACGTGGTTCG | 0.05 kcal/mol
GGCGGCACGTGATGAT | 0.05 kcal/mol
TGCGTCACGTGTTTGG | 0.11 kcal/mol
TATAGCACGTGGAATG | -0.04 kcal/mol
